Laboratory results taken from publication PMC7819943, “Rice protein-binding microarrays: a tool to detect cis-acting elements near promoter regions in rice”.
This is one part of the list.

Each sequence was assayed against T1, OsWOX13 (Oryza sativa, UniProt Q5QMM3 1-267) (assay: protein-binding microarray (RPBM); PBS, 2% BSA, 51.3 ng/ul salmon testes DNA, 50 uM zinc acetate, 200 nM TF, 25 C, 1 h; high values mean tight binding). Details: protein: recombinant; tags: N-terminal polyhistidine and DsRed monomer fusion (pET32a); label: CyDye5-dUTP incorporated in the synthesized complementary strand; 3' TTTTT single-stranded linker to array surface; dsDNA, one strand shown.
T1 sequence: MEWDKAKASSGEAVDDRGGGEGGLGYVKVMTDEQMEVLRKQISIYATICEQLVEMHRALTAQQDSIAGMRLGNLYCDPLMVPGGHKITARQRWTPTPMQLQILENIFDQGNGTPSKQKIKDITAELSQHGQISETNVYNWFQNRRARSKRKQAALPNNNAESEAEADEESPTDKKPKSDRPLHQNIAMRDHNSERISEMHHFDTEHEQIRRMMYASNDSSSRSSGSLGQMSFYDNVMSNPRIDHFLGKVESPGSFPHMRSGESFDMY
Outline: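 A custom Agilent array was converted to double-stranded form by primer extension with Cy5-dUTP and blocked with 2% BSA. Protein at 200 nM in PBS with 2% BSA, salmon testes DNA and 50 µM zinc acetate was applied for 1 h at 25 °C, followed by washing. The proteins were polyhistidine–DsRed N-terminal fusions of transcription factors, expressed in E. coli BL21-CodonPlus and Ni–NTA-purified. The binding signal is per-feature fluorescence intensity (arbitrary units) from an Axon 4000B scanner.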
With “CCCACACCTGACAACCAATCACGTCTTGGTGGCCCACATCCGGAGTCACCTAGTGCAG” the binding signal was 19500 fluorescence intensity (a.u.).
“ATAAATTACTGGTCATATGCAGGGAAGCATAACGTTGTTGCGGAGTCACCTAGTGCAG” was tested, and the binding signal was 16000 fluorescence intensity (a.u.).
“TTTTAGATTGGGTTATTTATAAGGCTAAGTTTTAATTTAACGGAGTCACCTAGTGCAG” was tested, and the binding signal was 4150 fluorescence intensity (a.u.).
For “TACATACAGAGCTGATGATTGATCGTTGGAGACTAGTACTCGGAGTCACCTAGTGCAG”, the binding signal was 14100 fluorescence intensity (a.u.).
With “ATTAAAATTATGTATGATCATGGCAAATCCGCCTTGTGCTCGGAGTCACCTAGTGCAG” the binding signal was 8950 fluorescence intensity (a.u.).
For “CAAAAGATGAGTGATTAGAGAATAAGATTGAGGTATGTTGCGGAGTCACCTAGTGCAG”, the binding signal was 11500 fluorescence intensity (a.u.).
In the case of “CTGTAATTTACTTAGGAAATTTTATAATTTTCTTATGGTACGGAGTCACCTAGTGCAG”, the binding signal was 28700 fluorescence intensity (a.u.).
With “GGCGGCGGCGGCGGGGCGGCGTGGCGCCGAGGGAGGGGAACGGAGTCACCTAGTGCAG” the binding signal was 3580 fluorescence intensity (a.u.).
In the case of “GTTTAATTGGTAATATTTCACATGCTATAAGCTAATTTTACGGAGTCACCTAGTGCAG”, the binding signal was 23800 fluorescence intensity (a.u.).
With “TTGATTGGGTTCTCATCTTGTACCGCTTTGCTCGGCGCAGCGGAGTCACCTAGTGCAG” the binding signal was 38300 fluorescence intensity (a.u.).
“AAAATAATTTTGGATCATCTACATGGGTGTTAATATTTGTCGGAGTCACCTAGTGCAG” was tested, and the binding signal was 9750 fluorescence intensity (a.u.).
For “TCTGATATAATTGGGCCTGGATGGAATGTATTTATGATTGCGGAGTCACCTAGTGCAG”, the binding signal was 34500 fluorescence intensity (a.u.).
In the case of “CTGCATACTTCTTGATTGGGATCCCTATTAGCTATAGCAACGGAGTCACCTAGTGCAG”, the binding signal was 22000 fluorescence intensity (a.u.).
In the case of “CACATTATGCTAATTTGGTAATTTTGCTGATGCATTCTAACGGAGTCACCTAGTGCAG”, the binding signal was 7710 fluorescence intensity (a.u.).
In the case of “TCCCAAGTGCCAACTAGTGATTGATGAGTGAGGAGGAAGACGGAGTCACCTAGTGCAG”, the binding signal was 9500 fluorescence intensity (a.u.).
With “CTGATTAAGATTGGTACTTGCTCCGATAGAGAACTCTACGCGGAGTCACCTAGTGCAG” the binding signal was 30800 fluorescence intensity (a.u.).
With “GCTGTAAATTTTGCTGTCACCATAAAGTCCAACCGAATAACGGAGTCACCTAGTGCAG” the binding signal was 7320 fluorescence intensity (a.u.).
For “AATCAACCAATCACACCAAAGCGCAAGGAGTTCCCATCGGCGGAGTCACCTAGTGCAG”, the binding signal was 8500 fluorescence intensity (a.u.).
In the case of “AATGCCCAATTAACTAAGATCATGGGCGTTGATAATGATGCGGAGTCACCTAGTGCAG”, the binding signal was 4800 fluorescence intensity (a.u.).
In the case of “AATAATAATTAATTATAGTAATTAATCATTAATTTTGTACCGGAGTCACCTAGTGCAG”, the binding signal was 64100 fluorescence intensity (a.u.).
For “ATTAATGCAGTAATTTTGTTAAGTACATCCCTTCGTCTCTCGGAGTCACCTAGTGCAG”, the binding signal was 7280 fluorescence intensity (a.u.).
For “TTGATTATTCATTGCATTGGTTATAAGTCTCAACGGAATTCGGAGTCACCTAGTGCAG”, the binding signal was 6500 fluorescence intensity (a.u.).
For “ATATTGTAATTATCAAAATTTCTCCTCTTTCTGTCTCCCACGGAGTCACCTAGTGCAG”, the binding signal was 24400 fluorescence intensity (a.u.).
“TCTGATGAACACATTGAGAAAGCAGATGAAGTTGCAGTGTCGGAGTCACCTAGTGCAG” was tested, and the binding signal was 5120 fluorescence intensity (a.u.).
For “AGATGACTGAAATGGGAGTGAAACCAGATGCACGTGGGTACGGAGTCACCTAGTGCAG”, the binding signal was 10500 fluorescence intensity (a.u.).
With “TTGAATTGGGATTAAACACATCGCTGTCCTTTCAACTCGGCGGAGTCACCTAGTGCAG” the binding signal was 8340 fluorescence intensity (a.u.).
In the case of “GGACATCATGATTAACATGTTATGAGGGATCACTATACTTCGGAGTCACCTAGTGCAG”, the binding signal was 6480 fluorescence intensity (a.u.).
With “GGAGCAATTAGGATTAAAAGATATGTCTCGTAAATTAGTCCGGAGTCACCTAGTGCAG” the binding signal was 6420 fluorescence intensity (a.u.).
In the case of “ATAGGACCTGATTGAGGGAGTATAAGATTCTGAGAATCAGCGGAGTCACCTAGTGCAG”, the binding signal was 16300 fluorescence intensity (a.u.).
With “ATGAGTCGTGATTTGTTATACTCTAGTACCGAATAGGAGTCGGAGTCACCTAGTGCAG” the binding signal was 10200 fluorescence intensity (a.u.).
“AAGATTACCCTAATTTGACAAGTTCATCCCATAAAACATTCGGAGTCACCTAGTGCAG” was tested, and the binding signal was 9140 fluorescence intensity (a.u.).
With “GTTCCTCTGATTGGGGAGGCTGGGGCACTGAAAAGGCGAACGGAGTCACCTAGTGCAG” the binding signal was 30700 fluorescence intensity (a.u.).
For “GTTTATAGACAGATGATGATACTGTATATTCTCAAGGGCGCGGAGTCACCTAGTGCAG”, the binding signal was 16300 fluorescence intensity (a.u.).
For “AATTCAATTACTATGGTTTCCAAGTAATACTGGCCCAGCACGGAGTCACCTAGTGCAG”, the binding signal was 14500 fluorescence intensity (a.u.).
In the case of “TGTAAATTTTGTTCTGCAAATGAATCGGGTCATGTCTTTCCGGAGTCACCTAGTGCAG”, the binding signal was 5440 fluorescence intensity (a.u.).
For “TGCTTTGACAATGTAATTTATCCCTTTCTTCTTGCATAGACGGAGTCACCTAGTGCAG”, the binding signal was 5360 fluorescence intensity (a.u.).
For “ACGAACATTAATTATTCTATCATCATATGCATATGTATGTCGGAGTCACCTAGTGCAG”, the binding signal was 23600 fluorescence intensity (a.u.).
With “ACACTATTAATTGTTTTATTAGGTTTCAGACGTTATTTTGCGGAGTCACCTAGTGCAG” the binding signal was 19100 fluorescence intensity (a.u.).
For “TAATTAATTAATTAACTAATGAGAAATTAATGGAGGACAACGGAGTCACCTAGTGCAG”, the binding signal was 49000 fluorescence intensity (a.u.).
With “TGTAATAATTAAATCTTAATTAATCATATGTTAACGTCATCGGAGTCACCTAGTGCAG” the binding signal was 44200 fluorescence intensity (a.u.).
In the case of “GATAACAAAACGGAAGATTGGTAGGAGTAATAATAAAATGCGGAGTCACCTAGTGCAG”, the binding signal was 7550 fluorescence intensity (a.u.).
In the case of “TGTGCTAATTGTATACGGAGTAATCCCTCCGATCTGATAACGGAGTCACCTAGTGCAG”, the binding signal was 10300 fluorescence intensity (a.u.).
